From paper PMC4336329 (PLoS ONE, 2015)
Among all 310,000 compounds or so, about 14,000 (4.5%) showed an effect of 50% or more. Effects have a minus sign here. The list shows a part of the results.

Target: human ether-à-go-go-related gene (hERG) potassium channel (human, UniProt Q12809)
Assay: primary screen, population patch clamp on CHO cells stably expressing hERG
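Note: peak tail current of the secondary pulse compared with the same well before compound.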

Chain of human ether-à-go-go-related gene (hERG) potassium channel (Q12809 whole entry, looked up): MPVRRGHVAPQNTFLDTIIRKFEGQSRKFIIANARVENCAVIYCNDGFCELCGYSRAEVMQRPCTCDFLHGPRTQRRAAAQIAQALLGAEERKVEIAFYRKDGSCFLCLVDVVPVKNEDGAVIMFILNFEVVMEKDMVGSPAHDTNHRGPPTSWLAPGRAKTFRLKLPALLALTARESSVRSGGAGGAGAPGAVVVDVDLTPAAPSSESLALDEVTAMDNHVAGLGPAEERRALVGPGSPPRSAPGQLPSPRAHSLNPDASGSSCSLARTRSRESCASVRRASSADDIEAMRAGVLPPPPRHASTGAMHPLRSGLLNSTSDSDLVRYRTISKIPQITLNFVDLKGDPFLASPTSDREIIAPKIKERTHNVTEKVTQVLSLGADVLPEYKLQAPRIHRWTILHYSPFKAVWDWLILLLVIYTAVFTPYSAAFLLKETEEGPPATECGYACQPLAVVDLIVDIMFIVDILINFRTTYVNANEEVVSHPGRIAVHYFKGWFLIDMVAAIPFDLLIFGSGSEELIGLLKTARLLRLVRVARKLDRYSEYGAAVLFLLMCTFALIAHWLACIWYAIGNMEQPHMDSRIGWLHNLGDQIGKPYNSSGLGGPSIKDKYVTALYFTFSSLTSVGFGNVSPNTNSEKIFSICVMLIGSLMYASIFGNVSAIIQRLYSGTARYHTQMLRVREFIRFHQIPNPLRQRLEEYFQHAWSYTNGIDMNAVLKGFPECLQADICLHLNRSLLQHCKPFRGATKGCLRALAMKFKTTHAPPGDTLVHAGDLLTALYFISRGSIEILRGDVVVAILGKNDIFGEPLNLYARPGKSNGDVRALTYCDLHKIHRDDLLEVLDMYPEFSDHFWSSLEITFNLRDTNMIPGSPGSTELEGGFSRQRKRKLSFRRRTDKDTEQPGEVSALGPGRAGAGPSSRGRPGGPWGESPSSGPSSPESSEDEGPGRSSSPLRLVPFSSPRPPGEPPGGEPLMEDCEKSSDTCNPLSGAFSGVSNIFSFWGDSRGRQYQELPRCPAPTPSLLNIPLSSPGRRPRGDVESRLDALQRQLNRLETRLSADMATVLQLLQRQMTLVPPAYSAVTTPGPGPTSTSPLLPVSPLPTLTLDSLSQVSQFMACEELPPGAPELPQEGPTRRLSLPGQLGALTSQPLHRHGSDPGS

SMILES | hERG current change (%, negative = inhibition) at 10uM
CCc1ccc(CCC(=O)Nc2ccc(C(C)=O)cc2)o1 | 3%
CCc1noc(C)c1C(=O)Nc1sc(C(=O)N(C)C)c(C)c1C(=O)OC | -5.03%
Cc1ccc(F)cc1S(=O)(=O)Nc1cccc(C(=O)N2CCCC(C(N)=O)C2)c1 (centres unmarked) | 2.48%
CCN(Cc1ccccc1)C(=O)Cc1ccc(OC)c(S(=O)(=O)N2CCOCC2)c1 | -25.1%
CCn1c(/C=C/c2cc[n+](C)cc2)nc2ccccc21.[I-] | 15%
Cc1c(C(c2ccc(Br)cc2)c2c(O)c3ccccc3oc2=O)c(=O)n(-c2ccccc2)n1C (centres unmarked) | -5.45%
COc1cc(/C=C2/SC(=O)N(Cc3ccccc3)C2=O)ccc1OCc1ccncc1 | 9.37%
Clc1ccc(C2Nc3cccc4cccc(c34)N2)cc1 | -2.37%
Cc1ccc(S(=O)(=O)/N=C2/C=C(Sc3ncn[nH]3)C(=O)c3ccccc32)cc1 | -7.34%
Cc1ccc(NC(=O)CN(C)C(=O)CSc2nc(C)cc(C)n2)cc1 | 5.43%
O=C(Nc1ccc(N2CCN(C(=O)c3ccco3)CC2)cc1)c1cccnc1Cl | 4.01%
Cc1cc(F)ccc1S(=O)(=O)N1CCCOC1CNC(=O)C(=O)NC1CC1 (centres unmarked) | -32.7%
CCCC(=O)OCC(=O)Nc1ccc([N+](=O)[O-])cc1C#N | 3.29%
COc1cc(NC(=O)CCCn2c(=S)[nH]c3ccccc3c2=O)cc(OC)c1OC | 8.48%
CCOC(=O)C1CCN(C(=O)Cn2cc(C#N)c3ccccc32)CC1 | -13.6%
CCCS(=O)(=O)c1c(S(=O)(=O)CCC)c2ccc(C(C)=O)cn2c1C(=O)OC | -12%
CCCC(=O)NC(C)c1nc2ccccc2[nH]1 (centres unmarked) | 10.5%
O=[N+]([O-])c1ccc(OCCOc2ccccc2/C=N/n2cnnc2)cc1 | -38.1%
Cc1noc(C)c1C(=O)N1CCOCC1 | 26.2%

SMILES | hERG current change (%, negative = inhibition) at 10uM
CCOC(=O)C(=O)N1CCC(C(=O)OC)CC1 | 27.4%
O=C1N/C(=C/c2cccn2-c2ccccc2)C(=O)N1Cc1ccc(F)cc1 | -9.44%
CCN(CC)c1ccc(/C=N/OC(C)C(=O)Nc2ccc(C)cc2)cc1 (centres unmarked) | -6.31%
CCC(=O)Nc1cc2c3c(c1)CCN3C(=O)CC2 | 1.41%
O=Cc1ccc(-c2nc3ccccc3s2)o1 | -12.6%
CCS(=O)(=O)c1nc(S(=O)(=O)c2ccc(Cl)cc2)c(N2CCN(C)CC2)s1 | -19%
COc1ccc(OC(C)C(=O)Nc2ccc(F)cc2F)cc1 (centres unmarked) | 5.81%
O=C(NCCc1ccc(Cl)cc1)c1ccc2c(c1)OCCO2 | 25.9%
CCOc1ncccc1C(=O)Nc1ccc(S(=O)(=O)Nc2nc(C)cc(C)n2)cc1 | 2.16%
CCN1CCCC1CN(Cc1cc2cc(C)cc(C)c2[nH]c1=O)C(=O)Nc1ccccc1OC (centres unmarked) | -61.4%
O/N=C/c1ccc2ccccc2n1 | 14%
CC1(C)Cc2c(cnn2-c2cccc(F)c2)C(NC(=O)Cn2cccn2)C1 (centres unmarked) | -11.5%
CCOC(=O)CSC1=NC(=O)/C(=C/c2ccc(Br)cc2)S1 | 18.3%
COc1ccc(NC(=S)NC(=O)c2csnn2)cc1 | -0.62%
CCn1cc(C(=O)NCCCN2CCC(C)CC2)c2cc(OC)c(OC)cc2c1=O | -1.66%
O=C(CCN1C(=O)CSC1=O)Nc1ccccc1 | 19.9%
Cc1oc(C(=O)O)cc1COc1ccc2c3c(c(=O)oc2c1)CCC3 | 3.86%
C/C(=N\O)C1CCCCC1 | 11.7%
CCOC(=O)C(C)(C)N(Cc1ccc(C)cc1)S(=O)(=O)c1ccc(Cl)c([N+](=O)[O-])c1 | 15.2%

SMILES | hERG current change (%, negative = inhibition) at 10uM
CCN(CC(=O)Nc1ccc(OC)cc1)C(=O)Cc1ccc(OC)c(S(=O)(=O)N2CCOCC2)c1 | 2.14%
CCN(CC)S(=O)(=O)c1ccc(S(=O)(=O)Nc2c(C)nn(C)c2C)cc1 | 16.9%
CCOC(=O)CSc1nnc(CNC(=O)c2ccc(OC)cc2)n1Cc1ccccc1 | -7.4%
Cc1cc(O)c(C2(C(F)(F)F)NCCNC2=O)cc1C (centres unmarked) | 12.7%
CCOc1ccc2oc(C(=O)OCC(=O)N3C(C)CCCC3C)c(C)c2c1 (centres unmarked) | -9.63%
CC(=O)N1CCc2cc(S(=O)(=O)CCC(=O)N3CCN(c4ccccn4)CC3)ccc21 | -11%
CCCCc1nccn1CCn1ccnc1CCCC.Cl | -5.64%
CCOC(=O)C1(Cc2ccc(Cl)cc2)CCN(C(=O)CCc2cnccn2)CC1 | -50%
COC(=O)CN1C(=O)[C@H]2[C@@H](c3ccc(C)o3)N3C(=O)CN(CC4CC4)C(=O)[C@@]3(C)[C@H]2C1=O | -0.425%
COc1ccccc1C1CCN(c2ccc(CO)cc2[N+](=O)[O-])CC1 | 4.52%
CC(=O)c1sc(C(C)(C)C)cc1NC(=O)/C=C/C(=O)O | 13.6%
O=C(O)CC1Oc2ccc(Cl)cc2NC1=O (centres unmarked) | 8.61%
CC(=O)NC(Cc1cnc[nH]1)C(=O)O (centres unmarked) | 3.31%
CCN1CCN(c2nc(Nc3cc(OC)ccc3OC)nc(Nc3cc(OC)ccc3OC)n2)CC1 | 10.6%
CCOc1ccccc1N(CC(=O)Nc1cc(OC)ccc1OC)S(C)(=O)=O | -10.8%
COCCNC(=O)c1cc(-c2ccc3c(c2)OCO3)on1 | 8.54%
CC(=O)c1ccc(N2CCN(C(=O)Nc3ccc(C)cc3)CC2)cc1 | -4.03%
O=C1c2ccccc2C(=O)N1CC1c2ccccc2CCN1S(=O)(=O)c1ccccc1 (centres unmarked) | 5.9%
